The values that follow come from PubChem BioAssay (NCI).

More than one record can exist for a structure, and the calls need not agree.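 Treatment: one concentration, 48 hours, 96-well format. Scoring: percent growth, with anything below 10 considered active.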 Certain results were filed several times, with different values. This is not the full list of results. There may be further records. The screen tested this drug many times, at the concentration stated with the values; each value is one run. Brackets with × stand for listed records that agree.

The subject of the assay is HCT-15 colon. Nature of the assay: NCI-60 one-dose screen, 48 h (100 = growth as untreated, 0 = no growth, -100 = all killed).

On to `COc1cccc2c1C(=O)c1c(O)c3c(c(O)c1C2=O)C[C@@](O)(C(=O)CO)C[C@@H]3OC1CC(N)C(O)C(C)O1` (stereo not given in full), for which the growth entry (0.25 µM, runs of 2012) was “inactive: 92, 90.7 (2×), 87.2, 91.5, 85.9, 89.7, 92.2, 91.4, 92.5 (3×), 84.8 (2×), 89.9, 85.7 (2×), 89.8 (2×), 80.4 (2×), 88.2, 94, 94.2, 94.5, 86.8, 84.3, 82.6 (2×), 83.4 (2×), 87.6 (2×), 90.8, 82.9, 85.1, 82.3, 95.3, 94.6, 86.4, 79 (2×), 84.7, 80.8, 74.7 (2×), 79.6, 73.6, 76.4, 74.9, 80 (2×), 77.5 (2×), 78.6, 74.1, 86.5, 78, 93.6, 91 (2×), 87.7, 96, 77.6, 78.7, 80.7, 70.6, 84.6, 80.6%”; the growth entry (0.25 µM, runs of 2013) was “inactive: 88.4, 83.1, 81.3 (2×), 85.3, 93.8, 86.2 (2×), 87, 87.7, 83.3, 83.6 (2×), 90.4, 84 (2×), 85.6, 90.3 (2×), 91.9, 79.5, 88.5, 80.2, 77, 77.6, 76.5, 77.3 (3×), 78.4 (2×), 81.1 (2×), 78.6, 74.8, 82.8, 87.6, 86.6 (2×), 85.2, 88, 78 (2×), 82.6, 76.1, 80.1, 79.8, 75.7, 78.1, 77.1, 71.2, 70, 63, 69.5, 87.2 (2×), 84.2, 77.7, 81.2, 80.6 (2×), 78.2, 73.5, 75.8, 73.9, 74.1, 68%”; the growth result (0.25 µM, runs of 2014) was “inactive: 82.8, 84, 80.1, 81.6 (2×), 73.7 (2×), 77.6, 76.3, 80, 76, 75.2 (2×), 86.1, 84.4, 81.1, 74.8, 81 (3×), 76.4 (2×), 82.3 (2×), 83.4, 76.7 (2×), 76.8, 76.9 (3×), 77.5, 75.5, 72.5 (3×), 74.5, 77.3, 78.7 (2×), 82.2, 74.1, 72.6, 70.5, 72.9, 71.6 (2×), 79.8, 73.3 (2×), 73.6 (2×), 67, 67.9, 66.2, 65, 66.3, 65.5, 70.6, 68.4, 75.6 (2×), 71.3, 68.9, 70.3, 79 (2×), 64.6, 74.9, 84.9, 69.2, 73.4, 80.8, 70.2, 68.6, 76.2, 78.6, 67.4%”; the growth entry (0.25 µM, runs of 2015) was “inactive: 78.9, 84.8, 72.4 (2×), 75.2 (2×), 72.6, 80, 69.5, 76.5 (2×), 73.6, 75.6, 78.2, 82.4 (2×), 77.5 (2×), 76.9 (2×), 71.2, 89.6, 67.2, 77.4, 76.4, 71.6, 83.1, 77.3 (2×), 81.6, 75.8, 80.5, 78.6, 81.2 (3×), 77.1 (2×), 75.7, 77.2 (2×), 73.5, 84.1 (2×), 68.8, 82.6, 76.3, 73.7, 87.8, 70.1, 72.2, 86.9, 73, 70.5, 78.5, 72.9, 77 (3×), 80.8 (3×), 81.8 (2×), 79.7, 68.5, 74.3 (2×), 86.2, 81.9, 79, 84.7, 79.1, 85.8%”; the growth entry (0.25 µM, runs of 2016) was “inactive: 82.8 (3×), 80.1, 82.9 (2×), 85.6, 79.8 (2×), 76.6 (2×), 87.6, 75.6, 79.1, 78.5, 77.6 (3×), 82.2, 81.8 (2×), 80.6 (2×), 74.5, 79.3, 77.7, 81, 78.7 (2×), 77.3 (2×), 77.4, 76.5, 75.5, 77 (2×), 76.3, 79, 81.3 (2×), 79.6, 78, 81.4, 82.7, 85.2 (2×), 81.7 (3×), 83.4, 90.1, 86.4, 86.6, 80.4, 75.8, 78.1, 83.7 (2×), 85.8, 80.5 (3×), 89.7, 88.3, 84.1, 83 (2×), 85.3, 80, 84, 84.2, 85.5 (2×), 88.4, 83.1, 82.6, 81.9, 81.2, 77.5, 87.5, 86%”; the growth result (0.25 µM, runs of 2017) is “inactive: 81.2 (3×), 82.4 (2×), 79.8 (2×), 82.1, 83.1 (2×), 77.1 (2×), 79 (2×), 73.5, 79.6, 76.6, 76.1, 82.9, 77.6 (2×), 76.5 (2×), 79.3 (3×), 81.8, 81.6, 77, 80.7 (3×), 75.7 (2×), 77.2, 78.2, 79.2, 81.1 (3×), 73.7 (2×), 80.4 (2×), 77.3, 82.2 (2×), 73.9, 76, 75.2, 78.3 (2×), 69.2, 74.9, 74.5, 73.2 (2×), 86.2, 89.2, 82.3, 83.7, 84.9, 85.9, 78.4, 77.7, 80, 83.9, 79.5 (2×), 80.8, 80.2, 80.1, 85.1, 81.4, 85.7%”. The growth result runs as follows: (0.25 µM, runs of 2018) “inactive: 87.1, 84.2, 75.6, 75.7, 74.7, 76.4 (2×), 79.8 (3×), 77.1, 83, 86.6, 80.1, 82.1, 79.2, 76.2, 82.2, 73.6, 72.8, 89.6, 79.5, 80, 80.7, 78.6, 76.8, 79.6, 79.3, 79.1, 74.9 (2×), 78.2 (2×), 81.4, 80.8, 78.1, 77.6, 74.8, 73.5, 77.2, 78.7 (2×), 77 (2×), 74.3, 78.9, 79, 81, 78.8%”; (0.25 µM, runs of 2019) “inactive: 72.7, 69.8 (3×), 77.4, 69, 69.2, 72.8 (2×), 68.8, 73.9 (3×), 80.1, 76.7, 75.6, 81.4, 71.2, 76.6, 73.4 (2×), 73, 73.7 (2×), 72.5, 70.9, 79.2, 64.6, 74.2, 62.4, 61.5 (2×), 76.3 (2×), 78.2, 83.4, 83.5, 79.5, 76.9, 82.2, 70.2, 70.6, 73.5, 75, 67.6, 74.9%”; (0.25 µM, runs of 2020) “inactive: 65.3, 67.7 (2×), 67.2, 66.7, 70.2, 69.9, 70.3, 72.5, 80, 81.7, 76.1, 82.1, 85.7, 76, 76.4, 78.7, 76.9, 74.1, 67.3, 78.5%”; (0.25 µM, runs of 2021) “inactive: 81.8, 84.4, 76, 78.4, 76.6, 74.2, 70.4 (2×), 70.3, 79.2, 80.7, 75, 74.7, 64.8, 69.7, 70.6, 73.4, 67.7, 70.1, 68.4 (2×), 67, 66.2, 67.9, 73.6, 78.9 (2×), 76.5, 59.8, 78, 78.7, 80.2, 82.8, 80.5, 75.8, 72.5, 83.5, 68, 67.1, 65.4, 61, 77.7, 74.8, 71.6, 77.6, 78.1, 76.8%”; (0.25 µM, runs of 2022) “inactive: 55.2, 69.9, 67.3, 46, 68.8 (2×), 60.4, 70.3, 73.7, 67.4, 72.2, 69.3, 70.1, 74.8 (2×), 82.6, 84.4, 81.7, 78.9, 82.1, 93.7, 71.3, 72.5, 71.2%”; (25 µM, runs of 1991) “active: 0.884, 5.31, -9.27, 0.874, 2.49, -5.81, 4.13, -19, -5.38, 1.29, 4.28, 0.462, -5, -13.7% and inactive: 97.9%”. The growth entry runs as follows: (25 µM, runs of 1992) “active: -3.77, 0.527, 7.25, 4.77, -8.1, -83.6, 0, 1.86, 2.08, 4.58, -20.2, -6.36, -19.3 (2×), 7.92, 8.99, 2.22, 1.54, 0.0446, -8.24, -8.96, -46.7, 2.27 (2×), 6.39, -94.3, -11.9, -23.2 (3×), 1.93, -0.477, 0.638, -8.05, 3.26, -44.4, -44.1, -13.8, -10.3, 0.824, 1.02, -24, 9.23, 8.23, -53.8, -34.8, -23.5, -27.8, -23.9, -4.66, 1.28, 6.46, 3.79, 2.53, -73, -16.6, -54.6, 0.15, 2.96, 1.43, 4.79, 1.25, 8.2, 4.33, -50.3, 6.71, -29.6, -27.5, -31.5, -15.1, -12.5, 1.2, 0.516, -5.05, -21.5, -34.4, -14.7, -7.95, -15.2, 7.81, -24.3, 3.57, -15.3, -13.4, 7.38, 5.65, 3.29, 8.12, -2.82, 2.06, 9.01, 5.45, 5.49% and inactive: 41.1, 11.1 (2×), 15.1, 16.3, 37.9, 10.5, 17.6, 12.2, 18.5, 12.6, 10.4, 11, 12.4, 12.7, 17.7, 13.7, 11.6, 14.7, 21.8, 13.1, 18.6, 12.9, 22.1, 22.5, 18.4, 30.9%”; (25 µM, runs of 1993) “active: 2.39, 1.35, -11.6, -10.3, 3.05, 4.73, -15.3 (2×), 5.33, 4.26, -19.6, 0.0366, -25.5, -3.3, -23.2, -12.4, -0.746, 4.64, 4.43, 3.27, -16.2, 7.67, -9.12, -36.4, 7.56, 7.85, 1.51, 2.08, 1.67, -6.54, -26.3, -5.4, 7.75, -40.1, 1.28, 4.94, -7.83, 1.87, -35.9, 4.34, 2.47, -19.4, 0.139, 0.617, -30% and inactive: 16.4%, 14.4%”; (25 µM, runs of 1994) “inactive: 23, 101, 11.8, 26.1, 10.9, 11.2, 11.9% and active: -35.7, -19.9, 7.82, -15.7, 6.98, 0.721, -25.7, 3.55, -6.31, -22.3, 5.87, 2.25, 1.5, -4.1, 4.82, -4.61, -26.2, 1.49, 8.85, 9.49, -18.6, 4.83, -9.84, -3.3, -6.33%”.
